According to a compilation of properties of binary mixtures (doi:10.1016/j.molliq.2019.111004):
The densities may have been worked out from excess volumes.

Experiment: xn = mol fraction of the nth substance listed
Settings: 100 kPa

CCCC[n+]1ccn(C)c1.NCCS(=O)(=O)[O-] + O
mass density [kg/m3]
Settings	288.15 K	293.15 K	298.15 K	303.15 K	308.15 K	313.15 K	318.15 K	323.15 K	328.15 K
x1 = 0.7982	1190.8	–	1184.5	1181.2	1178.1	–	1171.3	1168.5	1165.5
x1 = 0.8281	1192.2	1188.8	1185.8	1182.4	1179.3	1175.8	1172.5	1169.5	–
x1 = 0.8601	1193.5	1190.1	1187.2	1183.8	1180.7	–	1173.9	1170.8	–
x1 = 0.8945	1194.8	1191.6	–	1185.1	1181.9	1178.5	1174.9	1171.8	1168.6
x1 = 0.9354	1196.3	1193.1	–	–	1183.2	1179.8	–	1173	1169.8
x1 = 1	1198.3	1195.2	1192	–	–	–	1178.3	1174.8	1171.4

CCCn1cc[n+](C)c1.NCCS(=O)(=O)[O-] + O
mass density [kg/m3]
Settings	288.15 K	293.15 K	298.15 K	303.15 K	308.15 K	313.15 K	318.15 K	323.15 K	328.15 K
x1 = 0.8013	–	1213.4	1210	1206.5	1203.4	1200.3	1197.1	1194.3	1191.3
x1 = 0.8328	1218.6	1215	1211.5	1208.2	–	1202	1198.8	1195.9	1192.8
x1 = 0.8634	–	1216.7	1213.3	1209.8	1206.7	1203.5	1200.5	1197.6	–
x1 = 0.8962	1221.5	1218.1	1214.8	1211.5	–	–	1202.1	1199.1	1196
x1 = 0.9313	1223.1	1219.8	1216.4	–	1210	1207.1	–	1200.9	1197.6
x1 = 1	1225.5	1222.5	–	1216.1	–	1209.9	1206.8	1203.6	1200.3
